Some of the results follow. Most values come without repeats; read them as rough.
How the values were obtained:
Test in all cases: cell count relative to DMSO control; melanoma cells; higher = more viable cells
Conditions in all cases: library dose: standard library concentration; 72 h; first compound 2 µM
[1] = test system: G361
[2] = test system: IPC-298
[3] = test system: IST-MEL1
[4] = test system: LB2518-MEL
[5] = test system: LOXIMVI
[6] = test system: MEL-HO
[7] = test system: MZ2-MEL
[8] = test system: MeWo
[9] = test system: RPMI7951
[10] = test system: RVH-421
[11] = test system: SkMel28
[12] = test system: SkMel2
[13] = test system: SkMel30
[14] = test system: SkMel5
[15] = test system: UACC257
[16] = test system: UACC62
[17] = test system: WM115
[18] = test system: WM1716
[19] = test system: WM1745
[20] = test system: WM3526
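Further: cells treated in 1,536-well plates, then fixed and DAPI-stained, with nuclei counted from automated high-throughput microscope images.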

`CCCCCCCCCCCCCCCCCCOP(=O)([O-])OC1CC[N+](C)(C)CC1` [Perifosine] + NCC(=O)Nc1ccc(-n2nc(C(F)(F)F)cc2-c2ccc3c(ccc4ccccc43)c2)cc1 [OSU03012] (partner dose 5 µM) showed a cell count [1] of 66.3%, a cell count [2] of 57.8% and a cell count [3] of 86.2%. The cell count [4] was 82.7%, the cell count [5] was 83.2% and the cell count [6] was 68.7%. The cell count [7] was 85.4%, the cell count [8] was 108% and the cell count [9] was 43.9%. The cell count [10] was 67.7%, the cell count [11] was 16.3% and the cell count [12] was 30.6%. The cell count [13] was 36.1%, the cell count [14] was 61.7% and the cell count [15] was 68.1%. For the same compound, the cell count [16] was 83.4%, the cell count [17] was 78.4% and the cell count [18] was 83.3%. For the same compound, the cell count [19] was 99.5% and the cell count [20] was 50.9%.

Work on `Cn1sc(=O)n(Cc2ccccc2)c1=O` + OCCn1cc(-c2cnc3nnn(Cc4ccc5ncccc5c4)c3n2)cn1 [PF04217903] (partner dose 5 µM) yielded a cell count [1] of 78.3%, a cell count [2] of 108% and a cell count [3] of 91.7%. The cell count [4] was 100%, the cell count [5] was 94.6% and the cell count [6] was 99.2%. It also gave a cell count [7] of 95.5%, a cell count [8] of 99.8% and a cell count [9] of 61.5%. It also gave a cell count [10] of 119%, a cell count [11] of 131% and a cell count [12] of 87.7%. For the same compound, the cell count [13] was 69.1%, the cell count [14] was 92.4% and the cell count [15] was 92.9%. It also gave a cell count [16] of 90.1%, a cell count [17] of 99.1% and a cell count [18] of 100%. It also gave a cell count [19] of 89.5% and a cell count [20] of 102%.

With `C[C@@H](N)c1ccc(C(=O)Nc2ccnc3[nH]ccc23)cc1` + CN(NC(=O)CC(=O)NN(C)C(=S)c1ccccc1)C(=S)c1ccccc1 [STA4783] (partner dose 0.03 µM) the cell count [1] was 26.3%, the cell count [2] was 93% and the cell count [3] was 43%. It also gave a cell count [4] of 12%, a cell count [5] of 66.9% and a cell count [6] of 64.8%. For the same compound, the cell count [7] was 56.7%, the cell count [8] was 12.5% and the cell count [9] was 40.2%. For the same compound, the cell count [10] was 26.9%, the cell count [11] was 5.82% and the cell count [12] was 43.6%. For the same compound, the cell count [13] was 92.8%, the cell count [14] was 24.3% and the cell count [15] was 79.7%. The cell count [16] was 44.2%, the cell count [17] was 23.4% and the cell count [18] was 57.7%. It also gave a cell count [19] of 23.1% and a cell count [20] of 93.3%.

For `Cn1sc(=O)n(Cc2ccccc2)c1=O` + COc1cc(Nc2ncc(F)c(Nc3ccc4c(n3)NC(=O)C(C)(C)O4)n2)cc(OC)c1OC [Tamatinib] (partner dose 2 µM), the cell count [1] was 72.6%, the cell count [2] was 86.6% and the cell count [3] was 72%. For the same compound, the cell count [4] was 97.1%, the cell count [5] was 42.6% and the cell count [6] was 76.8%. For the same compound, the cell count [7] was 81.1%, the cell count [8] was 64.7% and the cell count [9] was 57%. The cell count [10] was 108%, the cell count [11] was 77.3% and the cell count [12] was 88.9%. The cell count [13] was 84.2%, the cell count [14] was 59.1% and the cell count [15] was 89.5%. It also gave a cell count [16] of 74.5%, a cell count [17] of 92.7% and a cell count [18] of 71.6%. For the same compound, the cell count [19] was 33.8% and the cell count [20] was 79%.

With `C[C@@H](N)c1ccc(C(=O)Nc2ccnc3[nH]ccc23)cc1` + CNC(=O)c1cc(Oc2ccc(NC(=O)Nc3ccc(Cl)c(C(F)(F)F)c3)cc2)ccn1 [sorafenib] (partner dose 2 µM) the cell count [1] was 74.3%, the cell count [2] was 82.4% and the cell count [3] was 85.8%. The cell count [4] was 111%, the cell count [5] was 111% and the cell count [6] was 68.5%. It also gave a cell count [7] of 56.5%, a cell count [8] of 56.1% and a cell count [9] of 58.6%. It also gave a cell count [10] of 42.1%, a cell count [11] of 72.5% and a cell count [12] of 87.6%. It also gave a cell count [13] of 82.3%, a cell count [14] of 48.9% and a cell count [15] of 55.8%. It also gave a cell count [16] of 123%, a cell count [17] of 78.1% and a cell count [18] of 70.4%. For the same compound, the cell count [19] was 55.3% and the cell count [20] was 76.5%.

For `C[C@@H](N)c1ccc(C(=O)Nc2ccnc3[nH]ccc23)cc1` + CCCCCCCCc1ccc(CCC(N)(CO)CO)cc1 [fingolimod] (partner dose 10 µM), the cell count [1] was 0.976%, the cell count [2] was 20.1% and the cell count [3] was 17%. The cell count [4] was 0.75%, the cell count [5] was 22.3% and the cell count [6] was 1.05%. The cell count [7] was 0.443%, the cell count [8] was 8.12% and the cell count [9] was 0.396%. It also gave a cell count [10] of 3.05%, a cell count [11] of 0.816% and a cell count [12] of 0.217%. For the same compound, the cell count [13] was 11.3%, the cell count [14] was 28.6% and the cell count [15] was 24.4%. It also gave a cell count [16] of 16.3%, a cell count [17] of 9.74% and a cell count [18] of 30.2%. The cell count [19] was 2.97% and the cell count [20] was 38.9%.
